PubChem BioAssay AID1508624 (National Center for Advancing Translational Sciences (NCATS), 2021)
About 120 (0.25%) of roughly 48,000 compounds were called active. Inconclusive results (about 4%) are left out. Calls follow the shape of the dose curve; as a rule, active = well fitted activation curve with a large enough effect; inconclusive = small, poorly fitted or top-dose-only effect, or another doubt; inactive = no such curve, though single readings can be large or run the other way. Some of the results follow.

experiment: Primary qHTS for Identification of Small Molecule Activators of Huntingtin-Antisense Promoter Activity; conditions: HEK293 HTT-AS promoter firefly luciferase reporter, 24 h; series mostly up to 57.5 µM; activity change, positive = activation: at the top concentration; also: nearly all actives have a fitted effect of over 55% in size
Outline: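 Quantitative HTS used concentration series of up to 57.5 uM final on HEK293 luciferase reporter cells, 24 h at 37 degrees C. Readout was Dual-Glo firefly luminescence.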

Activity change, positive = activation, inactive:
CCN1C(=O)C(Cc2nc3ccccc3c(=O)n2-c2cccc(C)c2)c2ccccc21 (stereo not drawn) -15.4%
CC(C)Oc1ccc(C(=O)NCCc2csc(-c3cccc(F)c3)n2)cc1 -19%
Cc1ccccc1NC(=O)c1c(C)oc2ccc(O)c(CN(C)Cc3ccccc3)c12 -29.1%
Cc1ccc(-c2noc(-c3ccccc3OCC(=O)Nc3ccccc3[N+](=O)[O-])n2)cc1 8.82%
O=C(Nc1ncc(Cc2ccc(F)cc2)s1)c1ccc2c(c1)CC(c1ccccc1)OC2=O (stereo not drawn) -8.47%
CCCCCn1c(CCCNC(=O)c2ccccc2)nc2ccccc21 -24.9%
CCCC(=O)N1c2nc(-c3ccco3)nn2C2(CCCCC2)[C@@H]2CCCC[C@@H]21 -23.5%
COc1cccc(NC(=O)Cn2c(=O)n(-c3ccc(C)cc3)c(=O)c3ccccc32)c1 -34.3%
Cc1nn(C)c2c1c(C(F)(F)F)cc(=O)n2CC(=O)Nc1ccc(F)cc1F -29.4%
Cc1ccccc1NC(=O)CSc1nccn1C -6.6%
Cc1nnc(N2CCC(C(=O)NC3CCC(C)CC3)CC2)c2nn(-c3ccc(Cl)cc3)c(C)c12 (stereo not drawn) -11.7%
Cc1cccc(N(C)C(=O)Cn2cnc3nc4c(cc3c2=O)CCCC4)c1 -8.5%
CCCSc1nnc(NC(=O)c2cc(=O)c3ccccc3o2)s1 16.7%
COc1ccc(S(=O)(=O)N(CCc2ccccc2)CC(=O)Nc2cc(Cl)ccc2C)cc1 -9.79%
CCOC(=O)N1CCc2c(sc3c2c(=O)n(CCc2ccccc2)c(=O)n3CC(=O)Nc2ccccc2C)C1 -8.88%
COC(=O)c1cc2sccc2n1Cc1c(C)cc(C)cc1C 12%
COc1ccc(NC(=O)C2CCCN(S(=O)(=O)c3ccc4[nH]c(=O)ccc4c3)C2)cc1Cl (stereo not drawn) -26.6%
NC(=O)c1c(NC(=O)CS(=O)(=O)c2ccc(Cl)cc2)sc2c1CCCC2 -27.1%
O=C(c1cccc(Cl)c1)N(Cc1cccc(F)c1)C1CCS(=O)(=O)C1 (stereo not drawn) -5.6%
CCCN1CCN(CCCNC(=O)c2cc3c(s2)-c2c(C)cccc2OC3)CC1 -2.5%
Cc1ccc(-c2nn(CCC(=O)Nc3ccc(OC(F)(F)F)cc3)c(=O)c3ccccc23)cc1 -7.75%
Cc1ccc(NC(=O)C2CCN(C(=O)c3sc4nc[nH]c(=O)c4c3C)CC2)cc1F -5.43%
COc1ccccc1C(=O)Nc1ccccc1OCc1cc(=O)n2cc(C)sc2n1 -0.0648%
Cc1ccc(C)c(OCCCC(C)(C)C(=O)O)c1 -1.74%
CCOc1cccc(C(=O)N(Cc2ccc(C(C)C)cc2)C2CCS(=O)(=O)C2)c1 (stereo not drawn) -12.4%
CCc1cccc(C)c1NC(=O)c1cc(CN2CCCC2)on1 -10.9%
CC(C)NC(=O)C1CCCN(S(=O)(=O)c2ccc3c(ccn3C)c2)C1 (stereo not drawn) -5.68%
COCCn1c(C)cc(O)c(C(c2cccc(F)c2)N2CCN(c3ccccc3)CC2)c1=O (stereo not drawn) 3.03%
COc1ccc(N(CC(=O)N2CCN(c3cccc(Cl)c3)CC2)S(=O)(=O)c2c(C)noc2C)cc1 -37.7%
CCOc1ccc(C(=O)N2CC(=O)Nc3ccc(F)cc3C2c2ccc(F)cc2)cc1 (stereo not drawn) -17.8%
COc1cc(C(=O)N2CCCCCCC2)cc(OC)c1OC -5.35%
COc1ccc(-c2oc3ncn4nc(COc5ccc(Cl)cc5)nc4c3c2-c2ccc(OC)cc2)cc1 6.89% [at 11.5 µM, percent change from vehicle, -100% = no light]
CCc1nnc2c(Nc3cc(OC)c(Cl)cc3OC)nc3ccccc3n12 -2.55%
COc1cc(C=CC(=O)CC(=O)C=Cc2ccc(O)c(OC)c2)ccc1O -56.4% [at 116 µM, percent change from vehicle, -100% = no light]
O=C(Nc1ccc2oc(-c3cccc4c(Br)cccc34)nc2c1)c1cccc(Cl)c1 10.9%
Cc1cc(Cl)ccc1NC(=O)C1CCCN(c2nnc(C)c3c(C)n(-c4ccccc4)nc23)C1 (stereo not drawn) -6.92%
Cc1cc(C)c(NC(=O)C(C)n2nc(C)c3sc4ccccc4c3c2=O)c(C)c1 (stereo not drawn) -14.6%
O=C(O)C(=O)Nc1cccc(-c2nn[nH]n2)c1 1.94%
COc1cccc(N2CC(NC(=O)c3cccs3)CC2=O)c1 (stereo not drawn) -13.9%
CC(CCc1ccccc1)NC(=O)CSc1n[nH]c(-c2ccccc2Cl)n1 (stereo not drawn) -21%
COc1ccc(OC(=O)c2cn(-c3cccc(OC)c3)c(=O)c3ccccc23)cc1 -20.9%
Cc1cc(F)ccc1NC(=O)C1CCCN(C(=O)c2cnn(-c3ccccc3)c2-n2cccc2)C1 (stereo not drawn) -44.4%
Cc1ccc(OC(C)C(=O)N2CCN(CCc3ccccn3)CC2)cc1C (stereo not drawn) -4.44%
O=S(=O)(NCC(c1ccco1)S(=O)(=O)c1cccs1)c1ccccc1 (stereo not drawn) 6.8%
Cc1nc2ccccc2n1CCc1nc2c3ccccc3nc(SCc3ccccc3F)n2n1 -10.8%
CCc1ccc(CNC(=O)c2ccc(Cn3c(=O)c4cccn4c4cccnc43)cc2)cc1 -20.5%
CCCc1nnc(NC(=O)CSc2nnc3c4ccccc4n(CC)c3n2)s1 -14.1%
Cn1nc(-c2ccccc2)c(-c2ccccc2)c(C(=O)Nc2ccccc2C(N)=O)c1=O -8.59%
CN(C)c1ccc(-c2nc3ccc(Cl)cn3c2Nc2ccc3c(c2)OCCO3)cc1 31%
CCCN(CCC)c1cc(C)nc2nc(-c3ccc(C(C)(C)C)cc3)nn12 -14.6%
Cc1cc(C)cc(N2C(=O)CSC23C(=O)N(CC(N)=O)c2ccccc23)c1 (stereo not drawn) -0.115%
CCOCCCNC(=O)Cn1ncc2c([nH]c3ccc(C)cc32)c1=O -13.8%
Cc1ccc(C)c(N2CCN(C3(c4ccccc4)C(=O)c4ccccc4C3=O)CC2)c1 -22.2%
COCCN(Cc1ccc(C)c(Br)c1)S(=O)(=O)c1ccc2[nH]c(=O)ccc2c1 -36%
CCOC(=O)c1ccc(NC(=O)c2cc(=O)c3ccc(C)c(C)c3o2)cc1 -0.64% [at 11.5 µM, percent change from vehicle, -100% = no light]
CC(=O)N1CCc2cc(Br)cc(S(=O)(=O)CCC(=O)N3CCN(c4cccc(C)c4C)CC3)c21 -34.3%
CCC[C@@H](NC(=O)[C@@H]1[C@H]2CCC[C@@H]2CN1C(=O)[C@@H](NC(=O)[C@@H](NC(=O)c1cnccn1)C1CCCCC1)C(C)(C)C)C(=O)C(=O)NC1CC1 -21.1%
CC(C)(C)C1CCc2c(sc(NC(=O)c3cc(-c4ccc(F)cc4)on3)c2C#N)C1 (stereo not drawn) 18.9%
Cc1cc(C)cc(-n2ccn3cnnc3c2=O)c1 -9.09%
Cc1ccc(OCC(=O)OCc2cc(=O)n3nc(C4CC4)sc3n2)cc1C -14.4%
CCC(C(=O)NCCc1ccc(OC)c(OC)c1)n1nc(C)c2sc3ccccc3c2c1=O (stereo not drawn) -27.4%
CCCN(c1ccccc1F)S(=O)(=O)c1cc(-c2cc(C)no2)ccc1C -31.7%
Cn1cc(C=CC(=O)c2cccc(F)c2)cc1C=CC(=O)NO 17.1%
CSc1cccc(Nc2cc(C(=O)NC3CCCCC3)c3ccccc3n2)c1 -24%
CCc1ccc2occ(CC(=O)Nc3c(C(=O)c4ccc(F)cc4)oc4ccccc34)c2c1 -12.2%
COc1ccc(C)cc1NC(=O)Cn1c(=O)oc2cc(S(=O)(=O)N3CCCCCC3)ccc21 -24.5%
CN1CCN(Cc2ccc(NC(=O)Nc3ccc(Oc4cc(NC(=O)C5CC5)ncn4)cc3)cc2C(F)(F)F)CC1 -30.9%
COC(=O)c1ccc(NC(=O)C(=O)NCCc2csc3nc(-c4ccccc4F)nn23)cc1 1.63%
CCOC(=O)N1CCN(Cc2nc3cc(NC(=O)CC(C)C)ccc3n2C(C)C)CC1 -41.9%
CCN(CC)S(=O)(=O)c1ccc2c(c1)N(CC(=O)Nc1cccc(C)c1C)C(=O)C1CCCN21 (stereo not drawn) -8.82%
O=C(CCCN1CCC(O)(c2ccc(Cl)cc2)CC1)c1ccc(F)cc1
COc1cccc(-c2noc(-c3cc4ccccc4oc3=O)n2)c1OC 29.2%
O=C(NCc1ccc2c(c1)CCN2C(=O)c1ccc(F)cc1)c1c(F)cccc1F -17.5%
COc1cc(OC)c(NC(=O)C(CC(C)C)N2Cc3ccccc3C2=O)cc1Cl (stereo not drawn) -23.4%
CCOc1ccccc1NC(=O)CSc1cn(CC(=O)N2CCCCCC2)c2ccccc12 -22.4%
COc1ccc(C)cc1NC(=O)CSc1ncc2c(n1)-c1ccc(Cl)cc1N(Cc1ccccc1)S2(=O)=O -13.7%
Nc1nonc1-c1nc2ccccc2n1CC(=O)Nc1cccc(C(F)(F)F)c1 -32%
Cc1ccc(NC(=O)CCN2C(=O)c3ccccc3Sc3ncccc32)cc1 -13.4%
CC1=C(C(=O)Nc2ccccc2)C(c2ccc(F)cc2)n2nc(SCc3cc(C)ccc3C)nc2N1 (stereo not drawn) 10.9%
COCCn1c(C)cc(O)c(C(c2ccccc2)N2CCCCC2)c1=O (stereo not drawn) 2.58%
CCc1ccccc1NC(=O)N1CCN(Cc2nc3ccc(C)cc3o2)CC1 -18.8%
Cc1ccc(-n2ncc3c(Nc4ccc(Oc5ccccc5)cc4)ncnc32)cc1 0.329%
Cc1cccc(Cn2cc3c(=O)n(CC(=O)Nc4cccc(C)c4C)nc-3c3cc(F)ccc32)c1 -26.6%
Cc1c(C(=O)Nc2cccc(C(F)(F)F)c2)sc2nc3n(c(=O)c12)CCC3 -1.35%
COc1ccc(NC(=O)c2cc(C3CC3)nc3c2c(C)nn3-c2ccccc2)c(OC)c1 -13.9%
CC(C)Cc1nn2c(=O)cc(COC(=O)c3cccc(NC(=O)c4ccccc4)c3)nc2s1 4.25%
CCCN(CCC)CCNC(=O)c1cc2c(=O)oc3ccc(C)cc3c2s1 -8.77%
Cc1cccc(N2CCN(C(=O)c3cc4ccc5cccnc5c4[nH]3)CC2)c1C -18.8%
CCOCCCNC(=O)Cn1ncc2c([nH]c3ccccc32)c1=O -7.01%
Clc1ccccc1CNCCCSc1nnnn1-c1ccccc1 -7.79%
CCOc1ccc(/C=C/c2nc(C#N)c(NCc3ccc(OC)cc3)o2)cc1 -14.7%
Cc1noc(C)c1S(=O)(=O)N(CC(=O)Nc1ccc(C(F)(F)F)cc1)c1ccc(C(C)C)cc1 -42%
CCOc1ccccc1CNC(=O)CN1C(=O)c2cccnc2Oc2ccc(Cl)cc21 -15.9%
